In the assay the target is T1, endogenous UHRF1 (human (endogenous in HEK293T)) (UniProt Q96T88).
T1 sequence: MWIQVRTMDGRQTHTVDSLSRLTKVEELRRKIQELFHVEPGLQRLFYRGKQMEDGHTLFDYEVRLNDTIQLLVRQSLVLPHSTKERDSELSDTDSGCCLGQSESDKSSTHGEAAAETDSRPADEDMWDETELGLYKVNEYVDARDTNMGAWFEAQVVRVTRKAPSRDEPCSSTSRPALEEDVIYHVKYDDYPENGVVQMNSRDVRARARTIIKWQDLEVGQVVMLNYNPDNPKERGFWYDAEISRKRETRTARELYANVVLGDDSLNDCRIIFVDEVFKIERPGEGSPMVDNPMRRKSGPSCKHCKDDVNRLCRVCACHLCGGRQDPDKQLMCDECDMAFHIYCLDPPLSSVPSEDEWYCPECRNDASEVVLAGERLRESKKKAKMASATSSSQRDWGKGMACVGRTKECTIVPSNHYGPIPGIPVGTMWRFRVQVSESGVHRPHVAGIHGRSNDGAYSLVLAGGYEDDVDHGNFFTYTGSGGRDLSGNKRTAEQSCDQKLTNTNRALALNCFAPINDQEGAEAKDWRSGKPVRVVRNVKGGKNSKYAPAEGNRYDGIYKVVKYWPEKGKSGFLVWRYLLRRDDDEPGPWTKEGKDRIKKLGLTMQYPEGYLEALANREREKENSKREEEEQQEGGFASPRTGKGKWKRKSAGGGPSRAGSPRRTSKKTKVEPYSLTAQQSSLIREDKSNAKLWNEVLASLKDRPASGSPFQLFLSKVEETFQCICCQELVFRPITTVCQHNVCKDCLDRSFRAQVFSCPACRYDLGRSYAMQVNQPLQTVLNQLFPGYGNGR
The experiment in a line: co-IP; endogenous UHRF1 and RFWD3 in HEK293T cells overexpressing RAD51 or RAD51^R254Q.

By UniProt entry, the sequences of proteins in these tests, tags left out.
UniProt Q06609: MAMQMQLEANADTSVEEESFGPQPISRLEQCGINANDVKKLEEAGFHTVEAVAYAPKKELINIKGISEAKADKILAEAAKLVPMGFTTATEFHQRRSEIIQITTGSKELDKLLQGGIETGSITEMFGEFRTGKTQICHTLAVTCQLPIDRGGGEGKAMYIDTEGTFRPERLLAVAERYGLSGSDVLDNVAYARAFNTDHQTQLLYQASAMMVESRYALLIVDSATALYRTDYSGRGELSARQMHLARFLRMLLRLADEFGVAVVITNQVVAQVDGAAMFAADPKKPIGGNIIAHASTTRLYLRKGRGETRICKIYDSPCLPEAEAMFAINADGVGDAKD

Results are given in words; binding and its absence hold for the method and conditions named. Binding seen in cells or lysates may run through a third protein. Some entries that bind do so weakly or less than the wild type.

“RAD51 overexpressed in HEK293T cells (from UniProt Q06609 1-339)”: the binding result is “binds”.
